{"source": "patent US10370425B2", "about": "“Peptide antagonists of the calcitonin CGRP family of peptide hormones and their use” (priority 2012, dated 2019)", "target": "T1, amylin receptor, AMY1, a CT (calcitonin) receptor/RAMP1 (receptor-activity modifying protein) complex (Homo sapiens, UniProt O60894+P30988)", "T1 construct": "host or cells: CHO-K1/AMY1/Gα15", "T1 sequence (P30988 25-474)": "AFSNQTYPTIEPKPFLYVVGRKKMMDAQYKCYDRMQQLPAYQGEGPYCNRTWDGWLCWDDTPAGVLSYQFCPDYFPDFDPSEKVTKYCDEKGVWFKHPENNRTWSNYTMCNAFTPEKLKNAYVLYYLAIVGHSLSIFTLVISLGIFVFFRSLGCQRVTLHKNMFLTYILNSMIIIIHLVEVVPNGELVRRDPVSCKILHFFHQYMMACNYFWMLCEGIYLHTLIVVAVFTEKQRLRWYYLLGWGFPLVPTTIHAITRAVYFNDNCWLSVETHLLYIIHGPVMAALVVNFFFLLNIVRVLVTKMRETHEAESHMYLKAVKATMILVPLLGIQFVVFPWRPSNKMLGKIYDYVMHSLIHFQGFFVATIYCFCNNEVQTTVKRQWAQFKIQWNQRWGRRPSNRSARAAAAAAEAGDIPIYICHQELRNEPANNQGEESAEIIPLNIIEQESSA", "T1 sequence (O60894 27-148)": "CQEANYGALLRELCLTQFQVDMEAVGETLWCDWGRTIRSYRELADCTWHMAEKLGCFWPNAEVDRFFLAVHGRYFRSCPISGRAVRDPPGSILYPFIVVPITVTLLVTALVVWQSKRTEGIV", "experiment": "Calcium flux assay (FLIPR Calcium 4) of inhibition of α-CGRP stimulation in CHO-K1/AMY1/Gα15 cells", "format": "cell-based", "details": "CHO-K1/AMY1/Gα15 cells stimulated with 32 nM (EC80) α-CGRP; five concentrations from 1 μM, five-fold dilutions, duplicate", "protocol": "Using a calcium flux assay, the dose-dependent inhibitory response of peptide antagonists of the present invention on an amylin receptor, AMY1, a CT (calcitonin) receptor/RAMP1 (receptor-activity modifying protein) complex was determined. The recombinant cell line CHO-K1/AMY1/Gα15 (GenScript, Piscataway, N.J., Catalog No. M00475) was employed in the assay. Peptide antagonist activities were tested, in duplicate, at five different concentrations, starting with 1 μM and serially diluted five-fold, in DMSO. AC187 (SEQ ID NO: 55), a known amylin receptor antagonist (available for example from Tocris Bioscience, Minneapolis, Minn., Catalog No. 3419) was used as a positive control in the assays, and human α-CGRP, a known amylin receptor agonist (SEQ ID NO:56) , (available for example from Tocris Bioscience, Minneapolis, Minn., Catalog No. 3012) was used as a positive control in the assays. The FLIPR® Calcium 4 Assay Kit (Molecular Devices, Sunnyvale, Calif.) was used.\nHuman α-CGRP having the amino acid sequence, NH2-[…]-NH2 (SEQ ID NO:56) and AC187 having the sequence […] (SEQ ID NO: 55) were employed as negative and positive controls, respectively. Stock solutions were further diluted in HBSS-HEPES buffer to make 5×final control solutions.\nCHO-K1/AMY1/Gα15 cells were seeded in a 384-well black wall, clear bottom plate at a density of 20,000 cells/well in 20 μL of growth medium 20 hours prior to the day of the experiment and maintained at 37° C./5% CO2.\nPer the assay kit protocol, dye-loading solution (at 2×final concentration) was added into the assay plate, 20 μL per well. Compound solution (at 5 ×final concentration) was added into the assay plate, 10 uL per well. The assay plate was placed into a 37° C. incubator for 1 hour, then left for 15 min at RT. The agonist plate (at 5×EC80 concentration) was placed in Source 2. The total reading time was 120 sec. The agonist was added after 20 seconds reading of the baseline and the fluorescence signal was captured for another 100 seconds (21 s to 120 s).\nIn screening, cells stimulated with assay buffer were chosen as the background; cells stimulated with agonist (at […] concentration) were chosen as the negative control.\nData were recorded by ScreenWorks (version 3.1) as FMD files and stored on the GenScript computer network for off-line analysis. Data acquisition and analyses was performed using ScreenWorks (version 3.1) program and exported to Excel. The average value of 20 (1 s to 20 s) seconds reading was calculated as the baseline reading and the relative fluorescent units (ΔRFU) intensity values were calculated with the maximal fluorescent units (21 s to 120 s) subtracting the average value of baseline reading.\nThe IC50 value of AC187 was 8 μM. The inhibitory activity of the tested peptide antagonists was normalized with the negative control (AC187) and reported as % Inhibition, calculated from the following equation: % Inhibition=(ΔRFUcompound−ΔRFUBackground)/(ΔRFUNegative control−ΔRFUBackground) * 100% Inhibition was then plotted along the Y-axis, with the test concentrations as indicated on the X-axis. The peptides were tested at indicated concentrations and stimulated with 32 nM (EC80) α-CGRP (Mean +/− SD, n=2).", "note": "Part of at least one peptide drawing is inferred or uncertain, most often the ends.", "data": [{"smiles": "CC(C)C[C@H](NC(=O)CNC(=O)[C@H](C)NC(=O)[C@H](CC(C)C)NC(=O)[C@H](CCCNC(=N)N)NC(=O)[C@H](Cc1c[nH]cn1)NC(=O)[C@@H](NC(=O)[C@@H](NC(=O)[C@@H]1CSSC[C@H](NC(=O)[C@H](C)N)C(=O)N[C@@H](CC(=O)O)C(=O)N[C@@H]([C@@H](C)O)C(=O)N[C@@H](C)C(=O)N[C@@H](C)C(=O)N1)C(C)C)[C@@H](C)O)C(=O)N[C@@H](CC(C)C)C(=O)N[C@@H](CO)C(=O)N[C@@H](CCCNC(=N)N)C(=O)N[C@@H](CO)C(=O)NCC(=O)NCC(=O)N[C@H](C(=O)N[C@H](C(=O)N[C@@H](CCCCN)C(=O)N[C@@H](CC(N)=O)C(=O)N[C@@H](CC(N)=O)C(=O)N[C@@H](Cc1ccccc1)C(=O)N[C@H](C(=O)N1CCC[C@H]1C(=O)N[C@H](C(=O)N[C@@H](CC(N)=O)C(=O)N[C@H](C(=O)NCC(=O)N[C@@H](CO)C(=O)N[C@@H](CCCCN)C(=O)N[C@@H](C)C(=O)N[C@@H](Cc1ccccc1)C(N)=O)C(C)C)[C@@H](C)O)C(C)C)C(C)C)C(C)C", "note": "[compound 15]", "values": [{"measurement": "IC50", "result": 1240, "unit": "nM"}]}]}
